Laboratory results reported in US20250051472A1 (Dana-Farber, published 2025).
Like-named read-outs stand apart in the source and are kept apart here.

Key:
[1] = target: T1, human BCAM on cells (human, UniProt P50895 32-628); test: flow cytometry binding curve on live Kuramochi cells
T1 construct: whole, on cells; also called full length BCAM; Basal Cell Adhesion Molecule
T1 sequence (looked up): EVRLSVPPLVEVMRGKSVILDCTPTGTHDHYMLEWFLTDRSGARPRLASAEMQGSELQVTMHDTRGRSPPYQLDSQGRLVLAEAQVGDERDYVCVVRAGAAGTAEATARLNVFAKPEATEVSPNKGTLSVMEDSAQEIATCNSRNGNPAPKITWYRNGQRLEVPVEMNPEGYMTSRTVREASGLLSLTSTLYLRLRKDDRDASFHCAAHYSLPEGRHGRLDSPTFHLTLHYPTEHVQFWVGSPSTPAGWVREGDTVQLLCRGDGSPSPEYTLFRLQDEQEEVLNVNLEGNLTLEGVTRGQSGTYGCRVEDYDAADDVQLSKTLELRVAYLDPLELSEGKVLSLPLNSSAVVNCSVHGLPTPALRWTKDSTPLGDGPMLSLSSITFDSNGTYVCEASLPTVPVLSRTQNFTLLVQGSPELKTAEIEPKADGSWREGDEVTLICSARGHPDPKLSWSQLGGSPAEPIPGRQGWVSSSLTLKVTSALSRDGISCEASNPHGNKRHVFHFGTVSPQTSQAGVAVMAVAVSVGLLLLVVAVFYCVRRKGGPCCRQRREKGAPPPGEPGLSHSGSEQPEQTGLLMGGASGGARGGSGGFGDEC

[2] = target: T2, PNGase treated recombinant human BCAM (human, UniProt P50895 32-547, deglycosylated with PNGase); test: ELISA; deglycosylated
T2 chain: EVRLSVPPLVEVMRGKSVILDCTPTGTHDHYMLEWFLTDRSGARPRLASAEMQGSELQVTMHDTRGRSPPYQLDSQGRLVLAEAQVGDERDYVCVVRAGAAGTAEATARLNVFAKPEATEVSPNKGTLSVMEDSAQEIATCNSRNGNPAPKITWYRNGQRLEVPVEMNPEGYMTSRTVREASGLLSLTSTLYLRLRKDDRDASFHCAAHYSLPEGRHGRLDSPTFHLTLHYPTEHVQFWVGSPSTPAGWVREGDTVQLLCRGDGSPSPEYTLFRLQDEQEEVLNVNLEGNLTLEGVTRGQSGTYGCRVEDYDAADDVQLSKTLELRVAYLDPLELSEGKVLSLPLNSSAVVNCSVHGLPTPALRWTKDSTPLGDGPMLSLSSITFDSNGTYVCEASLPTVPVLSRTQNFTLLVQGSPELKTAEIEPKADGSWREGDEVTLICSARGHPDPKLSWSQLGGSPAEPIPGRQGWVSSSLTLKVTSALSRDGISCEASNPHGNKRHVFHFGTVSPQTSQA

[3] = target: T2, PNGase treated recombinant human BCAM; test: ELISA; deglycosylated

EC50 [1]: 7.2 nM
Kd [2]: ~3.5 nM
Kd [3]: ~3.5 nM
B1: 6N2_22-hIgG1-Fc (full α-BCAM VHH-hIgG1-Fc fusion construct) (Fc fusion)
chain: QVQLVESGGGLVQPGGSLRLSCAASGFTFSSYAMSWVRQAPGKGPEWVSAINSGGGSTSYADSVKGRFTISRDNAKNTLYLQMNSLKPEDTAVYYCAKSWTVRIGQIYHHPTDYWGQGTQVTVSS[human IgG1 Fc left out here]
notes: also called a-BCAM VHH (6N2_22); anti-BCAM VHH
